Laboratory results: PubChem BioAssay AID886 (National Center for Advancing Translational Sciences (NCATS), 2007)
Screen size: about 73,000 compounds; about 2,500 (3.4%) were called active. Inconclusive means that the source gave no clear call. Such entries were picked first, then a sample of the others. Calls follow the shape of the dose curve; as a rule, active = well fitted inhibition curve with a large enough effect; inconclusive = small, poorly fitted or top-dose-only effect; inactive = no such curve, though single readings can be large or run the other way. Where the call is inconclusive, the potency comes from a doubtful curve fit.

Molecular target: 3-hydroxyacyl-CoA dehydrogenase type-2 (Homo sapiens) (UniProt Q99714)
Sequence of UniProt Q99714 (Q99714 whole entry, looked up): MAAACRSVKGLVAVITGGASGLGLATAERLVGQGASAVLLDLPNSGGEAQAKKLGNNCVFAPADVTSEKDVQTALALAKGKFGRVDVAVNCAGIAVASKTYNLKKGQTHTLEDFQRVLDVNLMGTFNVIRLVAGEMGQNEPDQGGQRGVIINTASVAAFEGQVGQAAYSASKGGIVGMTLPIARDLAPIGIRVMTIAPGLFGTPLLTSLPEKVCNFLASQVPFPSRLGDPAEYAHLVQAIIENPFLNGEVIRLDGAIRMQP
Sequence of UniProt Q99714 (Q99714 whole entry, looked up): as above
Assay: qHTS Assay for Inhibitors of HADH2 (Hydroxyacyl-Coenzyme A Dehydrogenase, Type II); also: nearly all actives have a fitted effect of over 60% in size
Settings: recombinant HADH2, NADH fluorescence, beta-hydroxybutyryl-CoA; activity change, negative = inhibition: at 57.1 µM (top of the series)
In short: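 NADH fluorescence (ex 360/em 450 nm) read every 30 s for 4 min; activity taken as last-minus-first time point difference. Enzyme 20 nM, NAD+ 1 mM, beta-hydroxybutyryl-CoA 90 uM, pH 9.0 Tris buffer.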
% is scaled to controls: 0 for no effect and ±100 for the full control effect; potency is read from the fitted curve at half-maximal effect; tags tell the direction and shape of the fitted curve.

Question: How did the Potency turn out when `CNc1ncncc1-c1c(C)noc1C` was run?
Answer: Its Potency is inconclusive: 39.8 µM [inhibitor, single point].

Question: How did the “activity change, negative = inhibition” value turn out when `CS(=O)(=O)N(CC(=O)NCc1ccc2c(c1)OCO2)c1ccc(Cl)cc1` was run?
Answer: The value was inactive: -4.56%.

Question: Which Potency does the source give for `Cc1cccc(-n2c(CNC(=O)c3ccc(S(=O)(=O)N4CCCC4)cc3)n[nH]c2=S)c1` here?
Answer: The Potency was inconclusive: 0.0126 µM [inhibitor, full curve, poor fit].

Question: Which Potency does the source give for `CCOc1ccc2c(C)c(C(=O)O)oc2c1OCC` here?
Answer: The Potency was inconclusive: 6.31 µM [inhibitor, single point].

Question: For `COc1ccc(C(=O)N2CCCc3ccccc32)cc1`, which “activity change, negative = inhibition” value is on record?
Answer: The value was inactive: -4.02%.

Question: With `CC(=O)OC[C@H]1O[C@@H](O/N=C\[C@@H](C)[C@H](OCc2ccccc2)C(C)C)[C@H](OC(C)=O)[C@@H](OC(C)=O)[C@H]1OC(C)=O` as the molecule, how does the activity change, negative = inhibition read?
Answer: Its activity change, negative = inhibition is inactive: 13.4% [at 11.4 µM].

Question: How did the Potency turn out when `Cc1nc(NC2CCCCC2)c2nc(-c3ccccc3)n(CCCN(C)C)c2n1` was run?
Answer: Its Potency is inconclusive: 39.8 µM [inhibitor, single point].

Question: `CC(C(=O)NCC1CCCO1)N(C(=O)c1snc(C(N)=O)c1N)c1cccc(F)c1` (configuration not stated) was tested. Which Potency did it give?
Answer: The Potency was inconclusive: 31.6 µM [inhibitor, single point].

Question: With `COC(=O)C1=C(CN2CCc3ccccc32)NC(=O)NC1c1cc(C)ccc1C` (configuration not stated) as the molecule, how does the Potency read?
Answer: The Potency was inconclusive: 0.0251 µM [inhibitor, full curve, poor fit].

Question: `CCOc1ccc2[nH]c(=O)c(=O)[nH]c2c1` was tested. Which Potency did it give?
Answer: The Potency was inconclusive: 31.6 µM [inhibitor, partial curve, poor fit].

Question: With `COC(=O)/C=c1/sc2n(c1=O)CCN=2` as the molecule, how does the Potency read?
Answer: The Potency was inconclusive: 31.6 µM [inhibitor, single point].

Question: With `Cc1nnsc1-c1nc2ccccc2[nH]1` as the molecule, how does the Potency read?
Answer: Its Potency is active: 31.6 µM.

Question: For `CCn1c(SCC(=O)Nc2oc(-c3ccccc3)c(-c3ccccc3)c2C#N)nnc1-c1ccco1`, which Potency is on record?
Answer: Its Potency is inconclusive: 25.1 µM [inhibitor, single point].

Question: How did the Potency turn out when `Cc1cc(Cc2cc(Cc3cc(C)cc(C(C)(C)C)c3O)c(C)cc2C)c(O)c(C(C)(C)C)c1` was run?
Answer: Its Potency is inconclusive: 7.94 µM [inhibitor, single point].

Question: With `Nc1nc(-c2ccccc2Br)cs1` as the molecule, how does the Potency read?
Answer: The Potency was inconclusive: 39.8 µM [inhibitor, single point].

Question: With `COc1cc(OC)c(C#N)c(S(=O)Cc2ccccc2)c1` (configuration not stated) as the molecule, how does the Potency read?
Answer: The Potency was inconclusive: 25.1 µM [inhibitor, single point].

Question: `COC(=O)[C@H](Cc1ccccc1)NC(=O)[C@@H](C)CO` was tested. Which Potency did it give?
Answer: Its Potency is inconclusive: 0.794 µM [inhibitor, full curve].

Question: For `Cc1cccc(N(C)S(=O)(=O)c2ccc3[nH]c(=O)c(=O)[nH]c3c2)c1`, which Potency is on record?
Answer: The Potency was inconclusive: 39.8 µM [inhibitor, single point].

Question: With `CCC(=O)N1CCc2cc(S(=O)(=O)CCC(=O)Nc3nc(C)cs3)ccc21` as the molecule, how does the “activity change, negative = inhibition” value read?
Answer: The value was inactive: -9%.

Question: For `CCC(=O)n1nc(-c2ccco2)nc1N`, which Potency is on record?
Answer: The Potency was inconclusive: 25.1 µM [inhibitor, single point].

Question: `Cn1c(=O)n(C)c2cc(S(=O)(=O)N3CCOCC3)ccc21` was tested. Which “activity change, negative = inhibition” value did it give?
Answer: The value was inactive: 0.271%.

Question: `O=C(Nc1cccc(NC(=O)c2ccc(-c3cccc(Br)c3)o2)c1)c1ccco1` was tested. Which Potency did it give?
Answer: Its Potency is inconclusive: 31.6 µM [inhibitor, single point].

Question: Which Potency does the source give for `Nc1ccccc1SCc1csc(-c2ccc(Cl)cc2)n1` here?
Answer: Its Potency is inconclusive: 7.94 µM [inhibitor, single point].

Question: With `COc1ccc(Nc2cccccc2=O)cc1` as the molecule, how does the Potency read?
Answer: The Potency was inconclusive: 31.6 µM [inhibitor, single point].

Question: For `Cc1ccc2c(C)nc(Nc3ncc4c(n3)CCCC4=O)nc2c1`, which Potency is on record?
Answer: Its Potency is inconclusive: 7.94 µM [inhibitor, single point].

Question: Which Potency does the source give for `CC(Oc1ccc2oc(-c3ccccc3)c(C(=O)O)c2c1)C(=O)O` (configuration not stated) here?
Answer: The Potency was inconclusive: 39.8 µM [inhibitor, single point].

Question: For `Cc1cc(C)n2nc(NCc3ccccc3)nc2n1`, which Potency is on record?
Answer: Its Potency is active: 31.6 µM.

Question: Which Potency does the source give for `NC(=NCc1ccc(Cl)c(Cl)c1)NC(=O)c1nc(Cl)c(N)nc1N` here?
Answer: Its Potency is inconclusive: 39.8 µM [inhibitor, single point].

Question: For `Cc1ccccc1-c1nnc(SCc2ccc(F)cc2)o1`, which Potency is on record?
Answer: Its Potency is inconclusive: 39.8 µM [inhibitor, single point].

Question: With `COC(=O)Cc1[nH]nc2c1C(c1c[nH]c3ccccc13)C(C#N)=C(N)O2` (configuration not stated) as the molecule, how does the Potency read?
Answer: Its Potency is inconclusive: 25.1 µM [inhibitor, single point].

Question: For `O=C(C(Cc1ccccc1)n1cccc1)N1CCCCC1` (configuration not stated), which “activity change, negative = inhibition” value is on record?
Answer: The value was inactive: -2.23%.

Question: For `CCOC(=O)Cc1nnc(NC(=O)CSc2ccccc2)s1`, which Potency is on record?
Answer: Its Potency is inconclusive: 31.6 µM [inhibitor, single point].

Question: Which Potency does the source give for `CCN(CC)S(=O)(=O)c1ccc(-c2nnc3sc4cccc(C)c4n23)cc1` here?
Answer: Its Potency is active: 25.1 µM.

Question: How did the Potency turn out when `Cc1ccc(CNC(=O)c2cn(C3CCCCC3)c(=O)c3c2c2ccccc2n3C)o1` was run?
Answer: Its Potency is inconclusive: 39.8 µM [inhibitor, single point].

Question: How did the “activity change, negative = inhibition” value turn out when `O=C(CCN1CCc2ccccc2C1)Nc1ccc(F)cc1` was run?
Answer: Its value is inactive: 2.56%.

Question: With `COc1ccccc1CNc1cc(-c2ccc(C(=O)N(C)C)cc2)ncn1` as the molecule, how does the “activity change, negative = inhibition” value read?
Answer: Its value is inactive: 2.91%.

Question: For `CCOc1ccc2nc(N3CCCC(C(=O)NCCCN4CCOCC4)C3)sc2c1` (configuration not stated), which Potency is on record?
Answer: Its Potency is inconclusive: 6.31 µM [inhibitor, single point].
